# Whole data set: some 33,000 sequences, median “E-score (-0.5 to 0.5)” near -0.036, cut for the highest 2% near 0.37. The list shows a part of the results.
# Target: T1, Yer064c (UniProt P40041)
# T1 sequence: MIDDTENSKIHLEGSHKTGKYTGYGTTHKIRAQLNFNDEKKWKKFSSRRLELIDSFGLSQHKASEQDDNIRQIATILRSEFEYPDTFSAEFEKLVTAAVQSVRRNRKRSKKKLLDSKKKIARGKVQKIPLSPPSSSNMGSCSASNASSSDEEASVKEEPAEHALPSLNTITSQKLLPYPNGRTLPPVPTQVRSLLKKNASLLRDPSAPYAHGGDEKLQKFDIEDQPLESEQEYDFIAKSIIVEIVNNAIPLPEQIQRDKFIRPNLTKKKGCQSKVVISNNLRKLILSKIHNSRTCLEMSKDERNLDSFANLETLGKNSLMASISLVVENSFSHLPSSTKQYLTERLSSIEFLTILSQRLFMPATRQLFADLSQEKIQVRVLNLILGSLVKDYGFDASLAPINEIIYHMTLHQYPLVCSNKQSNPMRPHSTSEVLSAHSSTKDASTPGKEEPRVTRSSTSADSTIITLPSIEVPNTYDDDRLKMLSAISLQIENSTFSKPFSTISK
# Test: PBM E-score (8-mer binding enrichment) (E-score (-0.5 to 0.5)); higher = stronger / more preferred TF binding; most listed sequences are background and not binding sites
# Settings: protein concentration: 200 nM; construct: GST-full length
# In short: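 Each ungapped eight-base word and its reverse complement, pooled, received an E-score from the Universal PBM Analysis Suite. Underlying scans, normalised with masliner, recorded fluorescent anti-GST bound to GST-tagged yeast transcription factors. These were applied at about 100-200 nM to universal all-10-mer Agilent arrays double-stranded by primer extension.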
row,Sequence,PBM E-score
1,AGTTTGCG,-0.165
2,AATATTTC,0.0886
3,CGATCGTA,0.05
4,CTGCCCTA,-0.0272
5,AAGAATGG,-0.119
6,CCCGGTTA,-0.0703
7,ACCCTGTG,-0.0328
8,ATACTCCA,-0.0217
9,GCAGCCAC,0.176
10,CGAACTCA,0.225
11,CAATCTCA,0.0597
12,AAACCAGT,0.0665
13,CGGCCGCA,-0.109
14,AAACGCGT,-0.0178
15,GCGGTTCC,-0.174
16,AACTCCAT,0.0309
17,GATTCTAC,0.169
18,GTGATTAA,0.452
19,AAAAGTCG,0.0277
20,ACGGAATC,0.229
21,GCACGACA,-0.218
22,TCGAGAGA,-0.0213
23,AATTGACG,-0.178
24,CGGATACA,-0.0362
25,CCTTAACC,0.0403

row,Sequence,PBM E-score
1,CCAGAGCA,-0.0532
2,CATGGCCA,-0.107
3,ACGATTAC,0.185
4,GATTAGGC,0.25
5,CAGTACCA,0.0191
6,AGATCCTG,-0.0248
7,GTTACGCA,-0.0966
8,CCGCATCA,-0.101
9,CAGTGGAA,-0.00531
10,ATGACACA,0.165
11,AATTGATA,0.1
12,CTTCCTCA,-0.0401
13,CCCCTCTC,-0.264
14,ATGATCGC,-0.0456
15,AGCGGGAA,-0.153
16,ATCATGTA,0.195
17,GATACCGC,-0.156
18,ATTCGTAA,0.0198
19,CGAGACCA,0.00349
20,CGTCACAA,-0.0973
21,CAGTTAGA,0.105
22,AAGAACTC,0.0647
23,GCCTGAGA,0.033
24,GCAAGCAC,-0.269
25,TATACACA,0.147

row,Sequence,PBM E-score
1,ATGTCATG,0.214
2,TCCTATCA,-0.0302
3,ATTCTATA,0.0793
4,ATACGCTG,-0.0609
5,GGACGAGA,-0.323
6,CTAAGGTC,0.0684
7,CATGGGCG,-0.052
8,CTACAAGC,-0.19
9,ACAAAATG,-0.157
10,CTCGTTCC,-0.0337
11,GGTAGCGA,-0.172
12,GAAGAGCA,-0.0587
13,ACGCGCAC,-0.231
14,CTTGCTTA,0.0548
15,CCACGCAA,-0.122
16,CAAGAGCA,-0.174
17,ATCCACCA,0.0875
18,GAAAAGGC,-0.188
19,TACACCGA,0.034
20,ATATGCCA,-0.311
21,AACCCGGT,-0.258
22,TCAACAAA,0.0993
23,AACACATA,0.113
24,GTGCCTGA,0.0131
25,ACACGGTA,0.0338

row,Sequence,PBM E-score
1,ACAACGGT,-0.116
2,AAACGATG,-0.0198
3,TAGCTGCA,-0.231
4,ATATGGGC,-0.128
5,CCACCGAC,0.0567
6,AATCCTGC,-0.0324
7,AAAGAGAT,-0.0903
8,TACAGATA,0.0323
9,AGAATGAA,0.18
10,TCGGCTAA,0.0152
11,AGACGGTA,-0.0984
12,TAGTTGGA,-0.00186
13,AACCCGTT,-0.223
14,GCTCAGAC,0.05
15,CACCCAGC,-0.185
16,ACTCGAGT,0.283
17,AAAACGGG,-0.0311
18,AGGCAGCC,-0.219
19,AATTGGGG,-0.266
20,GAAGCTCA,-0.0335
21,CGCCTCCC,-0.374
22,ACTACAGG,0.179
23,CAGAGGGC,-0.171
24,ACTCGGAC,0.228
25,CTACCAGC,-0.0876

row,Sequence,PBM E-score
1,ATGACGAA,0.00502
2,ACTAAGCT,0.169
3,AGACTGCC,0.0288
4,CACCACCG,-0.249
5,CCGTGGGC,-0.156
6,AGCCAGTC,0.126
7,AGAAGCGG,-0.208
8,AGTATGAA,0.128
9,AGTTTGAG,0.0805
10,GCAGTCGC,0.209
11,GGCCGTGA,-0.0139
12,ATAGGGGA,-0.148
13,GACGTTGC,-0.196
14,ATATCATA,0.00064
15,ATATGCGC,-0.0135
16,ATGAGGCA,-0.307
17,CATCCAAC,0.00904
18,CTTATAGC,-0.104
19,AGGTACCC,-0.0331
20,AAGTCCCC,-0.157
21,CTATGAGC,0.234
22,CATAGTAG,0.0263
23,AAGTACGG,-0.194
24,TAGCTAGA,-0.0401
25,GAGGGTGA,0.114

row,Sequence,PBM E-score
1,AACCCGGG,-0.13
2,CACGACTC,0.437
3,GAACAACC,0.0303
4,CGGCACCG,-0.243
5,AATGCCGC,-0.199
6,CAAACTTG,-0.189
7,ATTGTAAG,0.0138
8,CAATGCTC,-0.0304
9,GGATCTGA,-0.0808
10,ACCCTGAC,0.158
11,ATTCGTCA,-0.125
12,CCTTAGGC,-0.0901
13,AGTGTGCG,-0.149
14,AGTATCTA,0.0526
15,ACGATTCC,0.222
16,ATGGTGTC,0.0538
17,GTTATTGA,0.102
18,ATGGTATC,-0.0539
19,CAATGGGA,-0.0963
20,CGCCTAGA,-0.16
21,CATAGGCA,-0.203
22,TCCCCGAA,-0.219
23,GGTCCTAA,0.0129
24,GGGAAGTA,-0.131
25,CAATCGCA,0.117

row,Sequence,PBM E-score
1,ACGACTCA,0.477
2,CCGCTGTA,-0.0877
3,CGCCCACG,-0.147
4,GACGCATC,-0.283
5,ATGGGCCG,-0.177
6,TTAATTAA,0.0383
7,GTCACTTA,0.235
8,AAGATTAT,0.0932
9,GATTATTA,0.233
10,AATTTAGA,0.18
11,CCGGGTCC,-0.202
12,TAATACAA,0.0585
13,TTCTACAA,0.0422
14,GTTGCAGA,0.00855
15,TCCCTTAA,-0.0594
16,TAGGTATA,-0.123
17,CCGTATTA,0.0205
18,GAATGGAC,-0.0975
19,AAATATGC,-0.13
20,CCAACCGC,-0.211
21,AAATCCCA,-0.203
22,TCCGCCCA,-0.0784
23,GGTGGCTA,0.181
24,ATAAGCCG,-0.167
25,CTTAAATC,0.293

row,Sequence,PBM E-score
1,TCAAGTAA,0.184
2,GCGTTCAA,-0.00967
3,CTCGTTCA,-0.0674
4,TGGCAAAA,0.0917
5,CCTAAAAA,-0.0364
6,ATCCCAGG,-0.318
7,CCAGTTAC,-0.35
8,ACGAAGTG,-0.00708
9,ACCAGACT,0.0775
10,ACAATTAT,0.114
11,ATTTGTGG,0.044
12,ATCAACTG,0.131
13,ACAGCCTA,-0.0814
14,GCCGTTAA,-0.133
15,AAGAGGTC,-0.098
16,CTTTGCAC,0.0676
17,ACATAGCG,-0.094
18,GCATCCTA,-0.183
19,CAGGAGAC,0.0872
20,CCCCTATC,-0.133
21,AGTCCGTA,0.188
22,GAAGAGCC,-0.222
23,ATATAGTG,0.0402
24,ACCGCACG,-0.0881
25,ACTCGCAC,0.181

row,Sequence,PBM E-score
1,AATGTTCC,-0.0194
2,GTTCACTA,-0.0259
3,CAATTGCG,-0.0914
4,CCCGTCGG,-0.058
5,GCCCCAAC,0.0476
6,AGGTCATC,0.18
7,AAAGGTTC,-0.25
8,TCAGTGCA,0.056
9,AGAATACG,-0.0667
10,CTTGGTCC,-0.205
11,CACAACAG,-0.0343
12,AAGGGAAG,0.0707
13,AACCGGGA,-0.00991
14,CAGCAGGA,-0.0802
15,GAACACAC,0.0728
16,CAAATCCG,-0.213
17,CAATGGTC,0.183
18,AAGGTGTA,0.00153
19,CACTGCCA,0.00516
